# The list shows a part of the results. Sequences were assembled here from the parent chain. Inactive controls read about 0.05.
# B1: TEV protease; numbered along this chain (parent)
# chain: MGESLFKGPRDYNPISSSICHLTNESDGHTTSLYGIGFGPFIITNKHLFRRNNGTLVVQSLHGVFKVKDTTTLQQHLVDGRDMIIIRMPKDFPPFPQKLKFREPQREERICLVTTNFQTKSMSSMVSDTSCTFPSGDGIFWKHWIQTKDGQCGSPLVSTRDGFIVGIHSASNFTNTNNYFTSVPKNFMELLTNQEAQQWVSGWRLNADSVLWGGHKVFMVKPEEPFQPVKEATQL
# Variants of: B1
# Test: raw area under fraction-flipped curve 0-4 h after induction (AUC4h, not background-subtracted), DNA-recorder readout of cleavage of the substrate (dimensionless); higher = more cleavage of the substrate by the protease variant
# Conditions: temperature: 34 °C; time window: 0-4 h after rhamnose induction
# Protocol: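 In vivo DNA recorder in E. coli TOP10(DE3) ΔrhaA at 34 °C. Each TEVp single-site mutant (parent TEVp 0) is paired with a single-site variant of the 7-mer TEVs (canonical ENLYFQ|S). The substrate sits between flexible linkers in a Bxb1-sfGFP-TEVs-SsrA fusion, so cleavage stabilises Bxb1 and speeds flipping of a recombination array, read by NGS. The value is the raw area under the fraction-flipped curve over 0-4 h after rhamnose induction (AUC4h), with ≥20 reads per time point. It is not background-subtracted; inactive controls average about 0.047.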
# 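Further: Bxb1 expression induced with 0.2% (w/v) L-rhamnose at OD600 near 0.5, cultures sampled hourly, flipped fraction per protease–substrate barcode pair counted by paired-end Illumina sequencing.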
Variant,area with substrate ENLYFAS,area with substrate ENLYFCS,area with substrate ENLYFES,area with substrate ENLYFFS,area with substrate ENLYFGS,area with substrate ENLYFHS,area with substrate ENLYFIS,area with substrate ENLYFKS,area with substrate ENLYFMS,area with substrate ENLYFNS,area with substrate ENLYFPS,area with substrate ENLYFRS,area with substrate ENLYFSS,area with substrate ENLYFTS,area with substrate ENLYFVS,area with substrate ENLYFWS,area with substrate ENLYFYS,area with substrate ENLYFDS,area with substrate ENLYFLS
MGESLFKGPRDYNPISSSICHLTNESDGHTTSLYGIGFGPFIITNKHLFRRNNGTLVVQSLHGVFKVKDTTTLQQHLVDGRDMIIIRMPIDFPPFPQKLKFREPQREERICLVTTNFQTKSMSSMVSDTSCTFPSGDGIFWKHWIQTKDGQCGSPLVSTRDGFIVGIHSASNFTNTNNYFTSVPKNFMELLTNQEAQQWVSGWRLNADSVLWGGHKVFMVKPEEPFQPVKEATQL [K90I],0.0724,0.0463,0.0584,0.0658,0.0627,0.0519,0.0576,0.0589,0.0723,0.0741,0.0578,0.0546,0.1,0.0615,0.0635,0.0627,0.0474,–,–
MGESLFKGPRDYNPISSSICHLTNESDGHTTSLYGIRFGPFIITNKHLFRRNNGTLVVQSLHGVFKVKDTTTLQQHLVDGRDMIIIRMPKDFPPFPQKLKFREPQREERICLVTTNFQTKSMSSMVSDTSCTFPSGDGIFWKHWIQTKDGQCGSPLVSTRDGFIVGIHSASNFTNTNNYFTSVPKNFMELLTNQEAQQWVSGWRLNADSVLWGGHKVFMVKPEEPFQPVKEATQL [G37R],0.0437,0.0575,0.0607,0.0714,0.0504,0.054,0.047,0.0452,0.0463,0.0456,0.0579,0.0599,0.0759,0.0519,0.0696,–,0.062,0.0538,0.0534
MGESLFKGPRDYNPISSSICHLTNESDGHTTSLYGIGFGPFIITNKHLFRRNNGTLVVQSLHGVFKVKDTTTLQQHLVDGRDMIIIRMPKDFPPFPQKLKFREPQREERICLVTTNFQTKSMSSMVSDTSCTDPSGDGIFWKHWIQTKDGQCGSPLVSTRDGFIVGIHSASNFTNTNNYFTSVPKNFMELLTNQEAQQWVSGWRLNADSVLWGGHKVFMVKPEEPFQPVKEATQL [F133D],0.0705,0.0701,–,0.0661,0.0638,0.0554,0.0672,0.0532,0.0626,0.0641,0.0618,–,0.0607,–,0.054,0.0612,0.0595,–,0.0543
MGESLFKGPRDYNPISSSICHLTNESDGHTTSLYGIGFGPFIITNKHLFRRNNGTLVVQSLHGVFKVKDTTTLQQHLVDGRDMIIIRMPKDFPPFPQKLKFREPQREERICLVTTAFQTKSMSSMVSDTSCTFPSGDGIFWKHWIQTKDGQCGSPLVSTRDGFIVGIHSASNFTNTNNYFTSVPKNFMELLTNQEAQQWVSGWRLNADSVLWGGHKVFMVKPEEPFQPVKEATQL [N116A],0.0548,0.0408,0.0493,0.0726,0.0551,0.0617,0.0547,–,0.076,0.0328,0.0541,–,–,–,0.0636,0.0609,0.0687,0.0745,0.0548
MGESLFKGPRDYNPISSSICHLTNESDGHTGSLYGIGFGPFIITNKHLFRRNNGTLVVQSLHGVFKVKDTTTLQQHLVDGRDMIIIRMPKDFPPFPQKLKFREPQREERICLVTTNFQTKSMSSMVSDTSCTFPSGDGIFWKHWIQTKDGQCGSPLVSTRDGFIVGIHSASNFTNTNNYFTSVPKNFMELLTNQEAQQWVSGWRLNADSVLWGGHKVFMVKPEEPFQPVKEATQL [T31G],0.0454,0.0558,0.0485,0.0669,–,0.0509,0.0466,0.0568,0.0645,0.04,0.0614,0.0513,0.0658,–,0.0531,0.0543,0.0292,–,–
MGESLFKGPRDYNPISSSICHLTNESDGHTTSLYGIGFGPFIITNKHLFRRNNGTLVVQSLHGVFKVKDTTTLQQHLVDGRDMIIIRMPKDFPPFPQKLKFREPQREERICLVTTNFQTKSMSSMVSDTSCTFPSGDGIFWKHWIQTNDGQCGSPLVSTRDGFIVGIHSASNFTNTNNYFTSVPKNFMELLTNQEAQQWVSGWRLNADSVLWGGHKVFMVKPEEPFQPVKEATQL [K148N],0.0526,–,0.0662,0.0543,–,0.062,0.0577,0.0487,–,–,0.0626,–,0.0593,0.0636,0.0208,0.0555,0.063,0.0365,0.0481
MGESLFKGPRDYNPISSSICHLTNESDGHTTSLYGIGFGPFIITNKHLFRRNNGTLVVQSLHGVFKVKDTTTLQQHLVDGRDMIIIRMPFDFPPFPQKLKFREPQREERICLVTTNFQTKSMSSMVSDTSCTFPSGDGIFWKHWIQTKDGQCGSPLVSTRDGFIVGIHSASNFTNTNNYFTSVPKNFMELLTNQEAQQWVSGWRLNADSVLWGGHKVFMVKPEEPFQPVKEATQL [K90F],0.0676,0.107,–,0.0625,0.0501,0.0632,0.0643,–,0.0661,0.0618,0.0614,0.0648,0.0412,–,–,–,–,–,–
MGESLFKGPRDYNPISSSICHLTNESDGHTTSLYGIGFGPFIITNKHLFRRNNGTLVVQSLHGVFKVKDTTTLQQHLVDGRDMIIIRMPKDFPPFPQKLKFREPQREERICLLTTNFQTKSMSSMVSDTSCTFPSGDGIFWKHWIQTKDGQCGSPLVSTRDGFIVGIHSASNFTNTNNYFTSVPKNFMELLTNQEAQQWVSGWRLNADSVLWGGHKVFMVKPEEPFQPVKEATQL [V113L],0.0636,0.0637,0.06,0.0702,0.0521,0.0663,0.0623,0.0675,0.0615,0.0639,0.0632,–,0.066,0.0731,–,0.0557,–,0.0792,0.0564
MGESLFKGPRDYNPISSSICHLTNESDGHTTSLYGIGFGPFIITNKHLFRRNNGTLVVQSLHGVFKVKHTTTLQQHLVDGRDMIIIRMPKDFPPFPQKLKFREPQREERICLVTTNFQTKSMSSMVSDTSCTFPSGDGIFWKHWIQTKDGQCGSPLVSTRDGFIVGIHSASNFTNTNNYFTSVPKNFMELLTNQEAQQWVSGWRLNADSVLWGGHKVFMVKPEEPFQPVKEATQL [D69H],0.0503,0.0584,0.0546,0.0697,–,–,0.057,–,0.0673,0.0618,0.0528,0.0635,0.0671,0.0606,0.0661,0.05,–,0.0463,0.0549

# Reference: the supplement of paper PMC12217912
